# ChEMBL document CHEMBL4888484, “Replenishing the malaria drug discovery pipeline: Screening and hit evaluation of the MMV Hit Generation Library 1 (HGL1) against asexual blood stage Plasmodium falciparum ,using a nano luciferase reporter read-out” (2022)
# The campaign covered roughly 150,000 compounds. About 540 (0.36%) showed an effect of 50% or more. This is one part of the list.
# System: Plasmodium falciparum
# Test: Primary screen in NF54 nanoGlo assay, in single point, at 2uM, 72h; a lower Z score goes with more inhibition
# Assay type: functional, Erythrocyte
# Conditions: timepoint 72 hour
Structure (SMILES),% Inhibition [%],Z score
O=C1NCCOc2cc3c(cc21)CCCC3,-37,4.32
O=C(C[C@@H]1NC(=O)NC1=O)NC(c1ccccc1)C1CCC1 (stereo not given in full),-3,0.46
OC[C@H]1CCN(c2ccnc3cc(Cl)ccc23)C[C@@H]1O,-1,0.17
C[C@@H](c1ccccc1)n1c(NC(=O)c2ccccc2Cl)c(S(=O)(=O)c2ccccc2)c2nc3ccccc3nc21,-4,0.43
COc1cccc(CN2CCC[C@@]3(CCN(C(=O)c4cc(C)nc(N)n4)C3)C2=O)c1,2,-0.33
CCC1([C@@](O)(C#CCN(Cc2ccccc2)C(C)(C)C)c2ccccc2)CCCC1,33,-3.73
Cc1cc(CN[C@@H](C(=O)N2CCCCC2)c2ccccc2)no1,-10,2.11
CCCCN1CCN(C(=O)[C@H]2C[C@@H]2c2ccccc2)CC1=O,-9,1.62
Nc1ncnc(N2CCc3cccc(F)c3C2)c1Cl,-8,1.28
COc1cccc(CN2Cc3c[nH]nc3[C@@H](C)C2)c1C,-11,2.04
CCn1ccc(C(=O)Nc2ccc3c(c2)OCO3)n1,-11,1.8
Cc1cc(NC(=O)NC2CCCC2C(=O)OC(C)(C)C)no1 (stereo not given),-2,0.33
COc1ccccc1N1CCN(C(=O)c2[nH]nc3c2CCC3)CC1,-1,0.09
CON(C[C@H]1CCCc2ccccc21)C(=O)c1cn(C)cn1,11,-1.29
CCC(OC1CCCC(C)C1)C(=O)NC(C(N)=O)C(C)C (stereo not given),-3,0.46
COC(=O)CCNC(=O)CC[C@@H]1NC(=O)c2ccccc2NC1=O,3,-0.4
CCn1c(NC(=O)[C@H]2CCOC2)nc2ccc(Br)cc21,-6,0.81
CC(C)CCOC1CCN(C(=O)[C@H]2CCC(=O)N2)C1 (stereo not given in full),-9,1.64
COC(=O)c1cn(-n2c(O)cc(C)c(C#N)c2=O)cc2c(O)nnc1-2,15,-2.44
Cc1cnc2cc(C(=O)NC[C@H]3CCCCN3C3CC3)ccn12,3,-0.6
CCOCCn1cc(Br)cc(Br)c1=O,-20,2.05
CC(OCC1CCCO1)C(=O)N1CCCCC1C(O)c1ccccc1 (stereo not given),-7,0.94

Structure (SMILES),% Inhibition [%],Z score
Cc1ccc(C(=O)N2C[C@H]3CN(C(=O)c4ccccc4)C[C@@]3(CN(C)C)C2)cc1F,-11,1.45
Cc1cc(C(=O)N2CCOCC2)c(C)n1C(C)C,5,-0.74
COCC1(CNC(=O)CCCn2cccn2)CCC1,-5,0.97
Cc1cc(C)n(C(=O)CN2N=C(C(=O)Nc3ccccc3)CCC2=O)n1,-9,1.11
Cc1noc(CCNC(=O)N2CC3CCCCC32c2ccccc2)n1 (stereo not given),-7,0.7
CN(C)[C@H]1CN(C(=O)[C@H]2CC[C@H](C)CC2)C[C@@H]1O,-18,2.31
C[C@@H](CNC(=O)COc1ccsn1)COCc1ccccc1,-11,2.24
COCC(=O)N1CCN(C)C[C@H]1C(=O)NCCc1ccc(C)o1,-2,0.42
COc1ccc(NC(C)=O)cc1NC(=O)N[C@@H](C)c1n[nH]c(C)n1,-6,0.63
Cc1ccc([C@H](C)NCCCN2CCN(C(C)C)CC2)cc1F,-7,1.11
C[C@@](O)(CNC(=O)c1ccccc1F)Cc1ccsc1,-2,0.27
C[C@H](Nc1cc(-c2ccccc2F)nc2ccnn12)c1nnn[nH]1,-1,0.09
Cc1ccc(NC(=O)c2ccc(S(=O)(=O)c3ccc(Cl)cc3)o2)cc1C,-6,0.77
CCN=C(NCCOC)NCCc1nc(CC)c(C)s1,-10,0.97
CC(C)CN1C(=O)CC[C@@H]2CN(C(=O)c3ccccc3Cl)CC[C@@H]21,-6,1.17
O=C(c1c[nH]c2ccccc12)N1CCCC1,3,-0.5
Cn1ccc(N2CCCC(NC(=O)N3CCOC(c4cccc(O)c4)C3)C2=O)n1 (stereo not given),-8,1.41
CC(C)NC(=O)CCCc1nnc(C(=O)Nc2cccc(Cl)c2)s1,-5,0.67
CCCN(C/C=C/c1ccccc1)C(=O)[C@@H]1CCC[C@H](N)C1,-15,2.51
Cn1c(-c2cc3n(n2)CCCN(C(=O)c2ncn[nH]2)C3)nc2ccccc21,5,-0.64
COc1ccc(-c2nc3cc(C)ccc3cc2CN2CCN(C)C(=O)[C@@H]2C)cc1,-11,1.89
Cn1cc(-c2nc(C3CCCC3)cs2)cn1,0,-0.02

Structure (SMILES),% Inhibition [%],Z score
CCC1(c2noc(C3CCOCC3)n2)CCCC1,-3,0.39
Cc1cnc(NC(=O)CC2(Cn3cnc4ccccc4c3=O)CCCCC2)s1,28,-3.18
CC(C)N1CC[C@H](CNC(=O)NCC2(c3ccccc3)CC2)C1,-8,1
CCCNC(=O)CNC(=O)c1ccsc1,-6,1.17
O=C(Cc1cccc(Br)c1)NCc1cccc(-c2ncc[nH]2)c1,-8,1.26
Cc1cc(C(=O)N[C@H]2CCOC[C@H]2C2CCOCC2)nc(C)n1,-7,1.25
COc1ccc(NC(=O)Cn2c(C(F)(F)F)nc3cc4c(cc32)OCCCO4)cc1,35,-5.09
CC(CNC(=O)C1CCS(=O)(=O)C1)CN(C)C(=O)OC(C)(C)C (stereo not given),1,-0.13
Nc1c(-c2ccccc2)cnn1-c1nc2ccccc2s1,5,-0.58
COc1ccccc1N1CCN(C(=O)c2nnn(-c3ccc(C)c(Cl)c3)c2C)CC1,32,-3.57
COc1cnc(-c2cccc(C(F)(F)F)c2)nc1Oc1cccc(C(F)(F)F)c1,-10,1.16
Cc1nn(C)cc1-c1n[nH]cc1Br,36,-4.11
Cc1nn(S(=O)(=O)c2cccc3nsnc23)c(C)c1Cl,-4,0.6
CC(=O)N1CCC[C@H](NC(=O)c2ccc(-c3ccc(C#N)c(Cl)c3)cc2)C1,-15,1.35
CCCCn1nc(-c2ccncc2)nc1[C@H](CC)n1cccn1,-10,1.48
CC1=Nc2ccccc2C12CCN(C(=O)Nc1cnn(C)c1)CC2,12,-2.23
CCCN1C(=O)CC[C@@H]2CN(C(=O)c3ccc4ccccc4n3)CC[C@@H]21,-12,2.42
O=C(C[C@H]1CCS(=O)(=O)C1)NCc1ccc2c(c1)OCO2,-7,1.01
CC1=NN(S(=O)(=O)c2ccc(Cl)cc2)[C@@](O)(C(F)F)C1,-41,4.86
COc1cc(-c2nccn2CCc2nc3c(s2)CCC3)cc2c1OCO2,-1,0.17
CCn1ccnc1CN1CC[C@@]2(CCCN(Cc3cccc(F)c3F)C2=O)C1,-10,1.38
Cc1cc(N2C(=O)C[C@H](N3CCN(C(c4ccccc4)c4ccccc4)CC3)C2=O)no1,1,-0.13

Structure (SMILES),% Inhibition [%],Z score
Cc1ccc(-c2cnc3nc(C)cnc3n2)c(-n2cccn2)c1,-11,1.45
CC1CCC(NC(=O)C2CCC(CNS(=O)(=O)c3ccc4c(c3)C(C)(C)C(=O)N4C)CC2)CC1 (stereo not given),-2,0.16
Cc1ccc2sc(N(Cc3ccncc3)C(=O)Cc3ccc(F)cc3)nc2c1C,0,0.01
COC(=O)N[C@@H](C)C(=O)N(C)Cc1nc(C)c[nH]1,-9,1.21
Cn1ccnc1N1CCN(c2ccc(S(=O)(=O)C(F)F)cc2)CC1,-7,1.14
CC(C)[C@H](NC(=O)NC1CC12CCOCC2)C(F)(F)F (stereo not given in full),-7,0.67
C[C@@H]1CN(CCN(C)C(=O)c2ccc(-c3ncn(C)n3)cc2)C[C@H](C)O1,-31,3.69
COc1ccccc1C/N=C1\C(c2cc(OC)c(OC)c(OC)c2)=Nc2ncnn21,-5,0.65
COc1ccc2c(ccn2CC(=O)N2CCCN(C(C)=O)CC2)c1,-12,1.96
CC(C)Cn1[nH]c(CC(=O)Nc2cncc3c2CCCC3)cc1=O,-6,1.02
CS(=O)(=O)N[C@H]1[C@H](NC(=O)CCc2ccsc2)[C@@H]2CCO[C@@H]21,1,-0.08
Cc1cc(C)c2nccc(NC[C@@](C)(O)CCCO)c2c1,-10,1.32
NC(=O)Cc1nc(CCCn2cccn2)n(CC(F)(F)F)n1,-10,1.91
Cc1cnc(C)c(NCCCN2CCCC2=O)n1,-6,1.23
CC1=NN(c2ccccc2)C(=O)C1(N1CCOCC1)N1CCOCC1,26,-2.96
Cc1csc(COC(=O)c2cn(C)nc2C(C)(C)C)n1,-13,1.48
O=S(=O)(N1CCOCC1)N1CC2CCCCC2C1 (stereo not given),-13,1.36
C[C@H](NC(=O)CN1C(=O)COc2ccc(Cl)cc21)c1cccnc1,-4,0.6
CC[C@@H](CNC(=O)C1CCCC1)N1CCCC1,4,-0.54
